Many values rest on one well or one pass, so single values are uncertain.
How the values were obtained:
[1] = tested on: CHO-K1; assay: hypodiploid nuclei frequency (% of nucleated events); higher = more hypodiploid events (aneugenic)
Protocol: (§1)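 Flow-cytometric in vitro micronucleus assay (Litron MicroFlow) in CHO-K1 cells in 96-well plates, 19 concentrations (4.5-200 µM, n=1 per concentration). Without S9, cells were exposed for 24 h and sampled at 48 h. With Aroclor 1254-induced rat liver S9, cells were exposed for 3-4 h and sampled at 27-28 h. Read-outs are %MN and %hypodiploid nuclei relative to nucleated events, and relative survival as the nuclei-to-bead ratio versus the 1% DMSO vehicle control (x100).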

[2] = tested on: CHO-K1; assay: micronucleus frequency (% of nucleated events); higher = more micronuclei (genotoxic)
[3] = tested on: CHO-K1; assay: relative survival (nuclei to bead ratio vs DMSO control) (% of vehicle control); higher = more surviving cells
Protocol: as §1
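Wherever hypodiploid nuclei frequency (% of nucleated events) is given: hypodiploid nuclei gated on a flow cytometer with 488 nm excitation after SYTOX Green staining, cultures at 37 °C, positive controls vinblastine without S9 and cyclophosphamide with S9.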
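Wherever micronucleus frequency (% of nucleated events) is given: cells lysed with nuclei stained by SYTOX Green, then micronucleus-gated events counted against nucleated events by flow cytometry with 488 nm excitation.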
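Wherever relative survival (nuclei to bead ratio vs DMSO control) is given: Lysed-cell nuclei stained with SYTOX Green and counted against counting beads by flow cytometry at 488 nm excitation, with vinblastine (no S9) and cyclophosphamide (plus S9) as positive controls.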

CCc1nc(N)nc(N)c1-c1ccc(Cl)cc1 [Pyrimethamine]
Conditions | hypodiploid nuclei frequency, [1] [%] | micronucleus frequency, [2] [%] | relative survival, [3]
concentration: 4.5 (µM), S9 metabolic activation: with S9, exposure time: 3-4 hours | 0.26 | 0.98 | 88.7
concentration: 4.5 (µM), S9 metabolic activation: without S9, exposure time: 24 hours | 0.54 | 0.96 | 111
concentration: 5.63 (µM), S9 metabolic activation: with S9, exposure time: 3-4 hours | 0.2 | 1.98 | 88.7
concentration: 5.63 (µM), S9 metabolic activation: without S9, exposure time: 24 hours | 0.5 | 1.04 | 115
concentration: 7.04 (µM), S9 metabolic activation: with S9, exposure time: 3-4 hours | 0.34 | 1.08 | 100
concentration: 7.04 (µM), S9 metabolic activation: without S9, exposure time: 24 hours | 0.56 | 1.2 | 108
concentration: 8.8 (µM), S9 metabolic activation: with S9, exposure time: 3-4 hours | 0.18 | 0.9 | 76.7
concentration: 8.8 (µM), S9 metabolic activation: without S9, exposure time: 24 hours | 0.56 | 1.28 | 122
concentration: 11 (µM), S9 metabolic activation: with S9, exposure time: 3-4 hours | 0.12 | 1.14 | 90.3
concentration: 11 (µM), S9 metabolic activation: without S9, exposure time: 24 hours | 0.6 | 1.5 | 93.8
concentration: 13.7 (µM), S9 metabolic activation: with S9, exposure time: 3-4 hours | 0.24 | 0.88 | 110
concentration: 13.7 (µM), S9 metabolic activation: without S9, exposure time: 24 hours | 0.38 | 1.4 | 122
concentration: 17.2 (µM), S9 metabolic activation: with S9, exposure time: 3-4 hours | 0.34 | 1.16 | 100
concentration: 17.2 (µM), S9 metabolic activation: without S9, exposure time: 24 hours | 0.62 | 1.52 | 97.5
concentration: 21.5 (µM), S9 metabolic activation: with S9, exposure time: 3-4 hours | 0.16 | 1.56 | 110
concentration: 21.5 (µM), S9 metabolic activation: without S9, exposure time: 24 hours | 0.62 | 1.5 | 74.6
concentration: 26.8 (µM), S9 metabolic activation: with S9, exposure time: 3-4 hours | 0.22 | 1.36 | 94.6
concentration: 26.8 (µM), S9 metabolic activation: without S9, exposure time: 24 hours | 0.7 | 1.32 | 79.1
concentration: 33.6 (µM), S9 metabolic activation: with S9, exposure time: 3-4 hours | 0.32 | 1.6 | 95.8
concentration: 33.6 (µM), S9 metabolic activation: without S9, exposure time: 24 hours | 0.68 | 0.96 | 143
concentration: 41.9 (µM), S9 metabolic activation: with S9, exposure time: 3-4 hours | 0.24 | 1.28 | 97.7
concentration: 41.9 (µM), S9 metabolic activation: without S9, exposure time: 24 hours | 0.64 | 1.3 | 79.1
concentration: 52.4 (µM), S9 metabolic activation: with S9, exposure time: 3-4 hours | 0.34 | 1.7 | 104
concentration: 52.4 (µM), S9 metabolic activation: without S9, exposure time: 24 hours | 0.7 | 1.06 | 85
concentration: 65.5 (µM), S9 metabolic activation: with S9, exposure time: 3-4 hours | 0.2 | 1.24 | 102
concentration: 65.5 (µM), S9 metabolic activation: without S9, exposure time: 24 hours | 0.72 | 1.18 | 81.3
concentration: 81.9 (µM), S9 metabolic activation: with S9, exposure time: 3-4 hours | 0.24 | 1.02 | 99
concentration: 81.9 (µM), S9 metabolic activation: without S9, exposure time: 24 hours | 0.86 | 1.16 | 88
concentration: 102 (µM), S9 metabolic activation: with S9, exposure time: 3-4 hours | 0.3 | 1.42 | 93.4
concentration: 102 (µM), S9 metabolic activation: without S9, exposure time: 24 hours | 0.98 | 1.44 | 92.3
concentration: 128 (µM), S9 metabolic activation: with S9, exposure time: 3-4 hours | 0.26 | 1.12 | 87.9
concentration: 128 (µM), S9 metabolic activation: without S9, exposure time: 24 hours | 0.62 | 1.4 | 92.3
concentration: 160 (µM), S9 metabolic activation: with S9, exposure time: 3-4 hours | 0.1 | 0.98 | 106
concentration: 160 (µM), S9 metabolic activation: without S9, exposure time: 24 hours | 0.74 | 1.74 | 93.1
concentration: 200 (µM), S9 metabolic activation: with S9, exposure time: 3-4 hours | 0.26 | 1.16 | 83.2
concentration: 200 (µM), S9 metabolic activation: without S9, exposure time: 24 hours | 0.8 | 2.2 | 55.4

O=c1c(O)c(-c2ccc(O)c(O)c2)oc2cc(O)cc(O)c12 [Quercetin]
Conditions | hypodiploid nuclei frequency, [1] [%] | micronucleus frequency, [2] [%] | relative survival, [3]
concentration: 4.48 (µM), S9 metabolic activation: with S9, exposure time: 3-4 hours | 0.24 | 1.2 | 102
concentration: 4.48 (µM), S9 metabolic activation: without S9, exposure time: 24 hours | 0.82 | 2.24 | 93.6
concentration: 5.6 (µM), S9 metabolic activation: with S9, exposure time: 3-4 hours | 0.3 | 1.3 | 82.7
concentration: 5.6 (µM), S9 metabolic activation: without S9, exposure time: 24 hours | 0.74 | 2.34 | 138
concentration: 7 (µM), S9 metabolic activation: with S9, exposure time: 3-4 hours | 0.14 | 1.22 | 97.7
concentration: 7 (µM), S9 metabolic activation: without S9, exposure time: 24 hours | 0.78 | 2.52 | 112
concentration: 8.75 (µM), S9 metabolic activation: with S9, exposure time: 3-4 hours | 0.34 | 1.36 | 110
concentration: 8.75 (µM), S9 metabolic activation: without S9, exposure time: 24 hours | 0.86 | 2.9 | 115
concentration: 10.9 (µM), S9 metabolic activation: with S9, exposure time: 3-4 hours | 0.12 | 0.86 | 121
concentration: 10.9 (µM), S9 metabolic activation: without S9, exposure time: 24 hours | 0.76 | 1.68 | 107
concentration: 13.7 (µM), S9 metabolic activation: with S9, exposure time: 3-4 hours | 0.34 | 1.36 | 117
concentration: 13.7 (µM), S9 metabolic activation: without S9, exposure time: 24 hours | 0.96 | 1.74 | 116
concentration: 17.1 (µM), S9 metabolic activation: with S9, exposure time: 3-4 hours | 0.22 | 1.24 | 104
concentration: 17.1 (µM), S9 metabolic activation: without S9, exposure time: 24 hours | 0.86 | 2.18 | 111
concentration: 21.4 (µM), S9 metabolic activation: with S9, exposure time: 3-4 hours | 0.2 | 1.06 | 93.5
concentration: 21.4 (µM), S9 metabolic activation: without S9, exposure time: 24 hours | 0.66 | 1.88 | 99.6
concentration: 26.7 (µM), S9 metabolic activation: with S9, exposure time: 3-4 hours | 0.3 | 1.26 | 102
concentration: 26.7 (µM), S9 metabolic activation: without S9, exposure time: 24 hours | 0.52 | 2.02 | 84.7
concentration: 33.4 (µM), S9 metabolic activation: with S9, exposure time: 3-4 hours | 0.22 | 1.34 | 87.5
concentration: 33.4 (µM), S9 metabolic activation: without S9, exposure time: 24 hours | 0.92 | 1.56 | 98.8
concentration: 41.7 (µM), S9 metabolic activation: with S9, exposure time: 3-4 hours | 0.14 | 1.1 | 81.3
concentration: 41.7 (µM), S9 metabolic activation: without S9, exposure time: 24 hours | 0.72 | 1.64 | 103
concentration: 52.2 (µM), S9 metabolic activation: with S9, exposure time: 3-4 hours | 0.26 | 1.26 | 97
concentration: 52.2 (µM), S9 metabolic activation: without S9, exposure time: 24 hours | 0.92 | 1.76 | 89.2
concentration: 65.2 (µM), S9 metabolic activation: with S9, exposure time: 3-4 hours | 0.28 | 1.32 | 97.3
concentration: 65.2 (µM), S9 metabolic activation: without S9, exposure time: 24 hours | 1.04 | 2.12 | 106
concentration: 81.5 (µM), S9 metabolic activation: with S9, exposure time: 3-4 hours | 0.16 | 1.7 | 121
concentration: 81.5 (µM), S9 metabolic activation: without S9, exposure time: 24 hours | 0.96 | 1.42 | 89.2
concentration: 102 (µM), S9 metabolic activation: with S9, exposure time: 3-4 hours | 0.12 | 1.4 | 108
concentration: 102 (µM), S9 metabolic activation: without S9, exposure time: 24 hours | 1.22 | 1.5 | 92.8
concentration: 127 (µM), S9 metabolic activation: with S9, exposure time: 3-4 hours | 0.2 | 1.46 | 95.1
concentration: 127 (µM), S9 metabolic activation: without S9, exposure time: 24 hours | 1.26 | 2.44 | 106
concentration: 159 (µM), S9 metabolic activation: with S9, exposure time: 3-4 hours | 0.26 | 1.24 | 136
concentration: 159 (µM), S9 metabolic activation: without S9, exposure time: 24 hours | 1.5 | 3.06 | 107
concentration: 199 (µM), S9 metabolic activation: with S9, exposure time: 3-4 hours | 0.14 | 1.2 | 82.5
concentration: 199 (µM), S9 metabolic activation: without S9, exposure time: 24 hours | 1.54 | 2.16 | 94
